Test results taken from publication PMC7819943, “Rice protein-binding microarrays: a tool to detect cis-acting elements near promoter regions in rice”.
The other results are listed elsewhere or left out.

The sequences below were run against T1, OsWOX13 (Oryza sativa, UniProt Q5QMM3 1-267) (assay: protein-binding microarray (RPBM); PBS, 2% BSA, 51.3 ng/ul salmon testes DNA, 50 uM zinc acetate, 200 nM TF, 25 C, 1 h; high values mean tight binding). Conditions: protein: recombinant; tags: N-terminal polyhistidine and DsRed monomer fusion (pET32a); label: CyDye5-dUTP incorporated in the synthesized complementary strand; 3' TTTTT single-stranded linker to array surface; dsDNA, one strand shown.
T1 sequence: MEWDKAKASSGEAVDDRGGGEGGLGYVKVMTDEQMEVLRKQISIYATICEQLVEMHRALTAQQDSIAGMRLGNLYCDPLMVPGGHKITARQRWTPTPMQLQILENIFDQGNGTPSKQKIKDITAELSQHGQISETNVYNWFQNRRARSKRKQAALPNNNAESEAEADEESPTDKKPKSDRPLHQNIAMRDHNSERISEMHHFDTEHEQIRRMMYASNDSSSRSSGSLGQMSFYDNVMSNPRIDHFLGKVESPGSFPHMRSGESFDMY
Summary of the method: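 Polyhistidine-tagged DsRed fusions of transcription factors, joined at the N-terminus, were expressed in E. coli BL21-CodonPlus and isolated on Ni–NTA. They were incubated at 200 nM for 1 h at 25 °C on a custom Agilent array, double-stranded and BSA-blocked, in PBS with 2% BSA, salmon testes DNA and 50 µM zinc acetate. The binding signal is per-feature fluorescence intensity (arbitrary units) read on an Axon 4000B scanner after washing.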
“TGCGTGTTTTATGATTACCTATGTTTCTGTTGTGTTTTAACGGAGTCACCTAGTGCAG” was tested, and the binding signal was 4120 fluorescence intensity (a.u.).
In the case of “TAAAACATTTAATTGTTAATCGTATCCCTACCCAACATTCCGGAGTCACCTAGTGCAG”, the binding signal is reported as 12300 fluorescence intensity (a.u.).
“GCCGAATTGATAGCTGTCTTGTATTTCTTATGCTGATGGGCGGAGTCACCTAGTGCAG” was tested, and the binding signal was 29800 fluorescence intensity (a.u.).
In the case of “ACCATGACTGCAAAATTTCCAAGTTTCTCGCTAGTTTAAACGGAGTCACCTAGTGCAG”, the binding signal is reported as 5680 fluorescence intensity (a.u.).
With “AGGCACAACATCCCCACATGATTGGTGCAGGATCGTAGCGCGGAGTCACCTAGTGCAG” the binding signal was 3720 fluorescence intensity (a.u.).
With “CTAACGTTAGCACATAATTACTCTGTTCTATAATGTACTCCGGAGTCACCTAGTGCAG” the binding signal was 6420 fluorescence intensity (a.u.).
“TAGAAATTAATTTCATATAGTAAACTAAAGTAGCTTTATTCGGAGTCACCTAGTGCAG” was tested, and the binding signal was 17000 fluorescence intensity (a.u.).
For “AAAACTTTATGACTGTAATTAGCTTTGAACCTGTTCAGAACGGAGTCACCTAGTGCAG”, the binding signal was 10300 fluorescence intensity (a.u.).
For “CTCACTAATTATCTCTGAAGAAACATGACTTATTATCACTCGGAGTCACCTAGTGCAG”, the binding signal was 28500 fluorescence intensity (a.u.).
For “GATAATTGACAACATCATATGTAGTATATTCTACCAAAACCGGAGTCACCTAGTGCAG”, the binding signal was 44500 fluorescence intensity (a.u.).
“CCAAATTAGACATCACGCATTTATCGAGTGGTTCCCCTGGCGGAGTCACCTAGTGCAG” was tested, and the binding signal was 32100 fluorescence intensity (a.u.).
With “AAGGTTTAATTAAGGTGAAATTTACCGTGGGAATTTGTTTCGGAGTCACCTAGTGCAG” the binding signal was 9500 fluorescence intensity (a.u.).
With “AGGTGATTTTACAAAACCAAACTAAAATATAACACAAGCTCGGAGTCACCTAGTGCAG” the binding signal was 3640 fluorescence intensity (a.u.).
“TAATGATTGGGACAGGCTCTCTCAATGTATCGTCTAATTCCGGAGTCACCTAGTGCAG” was tested, and the binding signal was 47300 fluorescence intensity (a.u.).
“CCTAAATTATTCTAAAATTAAAATGTTAATGGGGAAGTATCGGAGTCACCTAGTGCAG” was tested, and the binding signal was 19900 fluorescence intensity (a.u.).
In the case of “ATATATATATATATATATATATATATATATATGCGCAGAGCGGAGTCACCTAGTGCAG”, the binding signal is reported as 26600 fluorescence intensity (a.u.).
With “ACAGCATCCAATTAACTTTAAAATGTACGGATGAATAACACGGAGTCACCTAGTGCAG” the binding signal was 9440 fluorescence intensity (a.u.).
For “TAAATTAACCAAAATTAGCCTCCTAATCCAGCTATAAGAACGGAGTCACCTAGTGCAG”, the binding signal was 10900 fluorescence intensity (a.u.).
“AAAATTATTTAAAATTTTAACATATTTTCATTGAATTTGGCGGAGTCACCTAGTGCAG” was tested, and the binding signal was 14300 fluorescence intensity (a.u.).
“AAACAGACAAACTACACTAATTGTGATGACTCTGGATTTTCGGAGTCACCTAGTGCAG” was tested, and the binding signal was 8340 fluorescence intensity (a.u.).
With “ATCACACAATCAATAATACACTCGGCGGATTCATCCCCGGCGGAGTCACCTAGTGCAG” the binding signal was 4720 fluorescence intensity (a.u.).
In the case of “GTTAGCTGATTGGTTTCTATTGGATTATATTGTTTTATTACGGAGTCACCTAGTGCAG”, the binding signal is reported as 19000 fluorescence intensity (a.u.).
For “AGGGTTGACAGGGGCATTTTCGCATTTTATGAAAATACTGCGGAGTCACCTAGTGCAG”, the binding signal was 5170 fluorescence intensity (a.u.).
For “TGAAAATTTTGATACTAGATAGGATCGGTATCATTTTGGTCGGAGTCACCTAGTGCAG”, the binding signal was 5360 fluorescence intensity (a.u.).
With “TCTGATTATAGAAAAGTTGCAGCTGCGAGAAAATTCTCTTCGGAGTCACCTAGTGCAG” the binding signal was 14100 fluorescence intensity (a.u.).
“AATAAAATTTAGAATGAAATTTAAATTCTAGAAGTTGTTACGGAGTCACCTAGTGCAG” was tested, and the binding signal was 8330 fluorescence intensity (a.u.).
For “ATGATCAATTCTATCAATTTATAAAGTTATGGCCAATTTTCGGAGTCACCTAGTGCAG”, the binding signal was 11000 fluorescence intensity (a.u.).
“TTTTAGATTAGAATCTAAACCAGGCCTAACGTGGTAACGTCGGAGTCACCTAGTGCAG” was tested, and the binding signal was 17100 fluorescence intensity (a.u.).
In the case of “TGTCCCAATCAACTGCTTGCATGGCAAATTCATTCAGGTTCGGAGTCACCTAGTGCAG”, the binding signal is reported as 11900 fluorescence intensity (a.u.).
With “TCCAATCAATCTGTAGTATCACCACCATTCACCAATCACCCGGAGTCACCTAGTGCAG” the binding signal was 17500 fluorescence intensity (a.u.).
For “TACTAATTTAATCCCCTTTGATCTGCTGACTGGTTTACTACGGAGTCACCTAGTGCAG”, the binding signal was 19700 fluorescence intensity (a.u.).
With “GCTAGTCAAATTTGCCTTACTAACTGCTCCGCGTAATTATCGGAGTCACCTAGTGCAG” the binding signal was 7760 fluorescence intensity (a.u.).
With “TTTAAAGTTATTGATGGTTAAAGTTATAAAAGTTTAACCTCGGAGTCACCTAGTGCAG” the binding signal was 3580 fluorescence intensity (a.u.).
“TGTGATTAATTGGTAATCTGCTTTTACAAGCTTCAATTGCCGGAGTCACCTAGTGCAG” was tested, and the binding signal was 60400 fluorescence intensity (a.u.).
“ATAATTAGACTTCTTGTTGCCTTCACCTATTTTAACACATCGGAGTCACCTAGTGCAG” was tested, and the binding signal was 13000 fluorescence intensity (a.u.).
With “TGATAATTAGAAGCCAGTGGTTGAAATGGACAGTGTAAGGCGGAGTCACCTAGTGCAG” the binding signal was 28600 fluorescence intensity (a.u.).
For “ATTTGACGAGGGCCACTTTAATTGCTCCAGGAGCGGAACTCGGAGTCACCTAGTGCAG”, the binding signal was 6060 fluorescence intensity (a.u.).
For “CAGCAAAATTTGACCAAATTTAACACTGGAAATTCAACTACGGAGTCACCTAGTGCAG”, the binding signal was 6730 fluorescence intensity (a.u.).
With “AGTGTGGCATGATAATTATGTGATGTCCAAACAAACACTGCGGAGTCACCTAGTGCAG” the binding signal was 4690 fluorescence intensity (a.u.).
“TCTAACTTTTAATAGATTATGCCTCTTGGGACAGTCTGAACGGAGTCACCTAGTGCAG” was tested, and the binding signal was 15300 fluorescence intensity (a.u.).
“CATGACTGCCATTTAGGCTGGAAGTGTAACAAGAAAGCATCGGAGTCACCTAGTGCAG” was tested, and the binding signal was 18200 fluorescence intensity (a.u.).
With “CAACTTCCAATCAATAAACACAACTTGAGCTTACAATACACGGAGTCACCTAGTGCAG” the binding signal was 11100 fluorescence intensity (a.u.).
For “GTTCAATAATCTTCAATCACTAGTTTGATAGTCGGTCCACCGGAGTCACCTAGTGCAG”, the binding signal was 35700 fluorescence intensity (a.u.).
For “ATAATATAAACTAGATTAGAGCCCATTATAATCAGTGTGACGGAGTCACCTAGTGCAG”, the binding signal was 5750 fluorescence intensity (a.u.).
In the case of “CTTCCAACTCGTGATTTGAAAACTTTCAACTCGAGATTTGCGGAGTCACCTAGTGCAG”, the binding signal is reported as 3590 fluorescence intensity (a.u.).
With “ACTATGATTTTAGGTGTAGGAAAATGCGCGCTGATTTTAGCGGAGTCACCTAGTGCAG” the binding signal was 4610 fluorescence intensity (a.u.).
“GTTATGATGGGGATAACGAGTTTCAAACACGAAGCACCTGCGGAGTCACCTAGTGCAG” was tested, and the binding signal was 4630 fluorescence intensity (a.u.).
“GCCCAGTTTACCAATGTTGACGAGCCCAACAAGCCATAAACGGAGTCACCTAGTGCAG” was tested, and the binding signal was 3520 fluorescence intensity (a.u.).
In the case of “AGCCAGCCAATCATGTTCGTCTCCTGTTGGAACTTGTAACCGGAGTCACCTAGTGCAG”, the binding signal is reported as 10500 fluorescence intensity (a.u.).
In the case of “GAGTTGATTGGTGTAAGTAATAAACCTATTAGCCGCACAACGGAGTCACCTAGTGCAG”, the binding signal is reported as 11100 fluorescence intensity (a.u.).
For “GCAAAGAGATTAGACTGGACACGAAGGCCTCCCTCTCCTCCGGAGTCACCTAGTGCAG”, the binding signal was 5000 fluorescence intensity (a.u.).
With “CATCCAGCATGCAGTTCATCAATCAGCAATGGCACCTCTGCGGAGTCACCTAGTGCAG” the binding signal was 3280 fluorescence intensity (a.u.).
With “TGTACATTATTATTGATCACTAATAGCCATATCCAAGCATCGGAGTCACCTAGTGCAG” the binding signal was 7660 fluorescence intensity (a.u.).
For “GCCACTTTACCATTTTCATCATTTCTTCCATTTTAAGTTTCGGAGTCACCTAGTGCAG”, the binding signal was 5000 fluorescence intensity (a.u.).
